The campaign covered roughly 150,000 compounds. About 540 (0.36%) showed an effect of 50% or more. The list shows a part of the results.
Tested on: Plasmodium falciparum
Assay: Primary screen in NF54 nanoGlo assay, in single point, at 2uM, 72h; a lower Z score goes with more inhibition
Assay type: functional, Erythrocyte
Settings: timepoint 72 hour

For CC(C)[C@H](NC(c1ccccc1)(c1ccccc1)c1ccccc1)C(=O)n1ccnc1, which “% Inhibition” value is on record?
Its value is 0%.

And the Z score?
Its Z score is -0.05.

For CCC(NCC(C)(O)c1cnn(C)c1)c1ccccc1F (stereo not drawn), which “% Inhibition” value is on record?
The value was 5%.

What about the Z score of the same molecule?
The Z score was -0.67.

Which results are given for CCCc1nc2cc(CCC(=O)Nc3ccc(Cl)cc3C)ccc2[nH]1?
% Inhibition: -2%; Z score: 0.28

Which results are given for Cc1nn(-c2ccc(N3CCCC3)nn2)c(C)c1CCC(=O)NCc1ccco1?
% Inhibition: -17%; Z score: 3.32

Which results are given for Cc1cc(=O)c(C(=O)N2[C@H](C)CC[C@H](C(=O)OC(C)(C)C)[C@@H]2C)c[nH]1?
% Inhibition: -13%; Z score: 1.36

For Cc1ccc(-c2nc(CNC(=O)[C@H]3CCCO3)[nH]c2-c2ccccn2)cc1, which “% Inhibition” value is on record?
Its value is -3%.

And the Z score?
The Z score was 0.68.

CCCCCOCC(=O)Nc1nc(C2CC2)c[nH]1 was tested. Which “% Inhibition” value did it give?
Its value is -18%.

And the Z score?
The Z score was 3.49.

Which results are given for O=c1ccc(C2CC2)nn1CC1CCN(C2CCCCC2O)CC1 (stereo not drawn)?
% Inhibition: -7%; Z score: 1.09

With CC(C)(C)c1nc(CS(=O)(=O)c2ccc(F)cc2F)no1 as the molecule, how does the “% Inhibition” value read?
Its value is -18%.

What about the Z score of the same molecule?
Its Z score is 3.22.

With Cc1cnn(CC2CCCN2C(C)C(=O)Nc2ncccn2)c1 (stereo not drawn) as the molecule, how does the “% Inhibition” value read?
The value was -5%.

What about the Z score of the same molecule?
Its Z score is 0.65.

CC1CCN(c2ccc(NS(=O)(=O)c3cccs3)cc2C(=O)O)CC1 was tested. Which “% Inhibition” value did it give?
Its value is -6%.

What about the Z score of the same molecule?
The Z score was 0.57.

Which results are given for C[C@@H](Cc1cc(C(=O)N2CCC(O)(c3cccc(C(F)(F)F)c3)CC2)on1)c1ccccc1?
% Inhibition: -9%; Z score: 1.45

For O=C(NCc1cccnc1N1CCOCC1)c1ccc(Cl)s1, which “% Inhibition” value is on record?
Its value is -10%.

What about the Z score of the same molecule?
Its Z score is 1.71.

What does the source list for COc1cc(NC(=O)C[C@H]2CCCO2)ccc1Br?
% Inhibition: 12%; Z score: -0.98

For CCn1nc(C)nc1-c1ccc(-c2ccn[nH]2)cc1, which “% Inhibition” value is on record?
The value was 1%.

What about the Z score of the same molecule?
The Z score was -0.26.

Which results are given for Cc1ccc(-c2noc([C@@H]3Cc4[nH]cnc4CN3Cc3ccc(N(C)C)cc3)n2)cc1?
% Inhibition: 1%; Z score: -0.16

For COc1cc(OC)c(N(C)C(=O)[C@H]2CCCN(c3ncnc4c3nc3n4CCCCC3)C2)cc1Cl, which “% Inhibition” value is on record?
The value was 0%.

What about the Z score of the same molecule?
The Z score was -0.02.

Which results are given for CC[C@H](C)N(Cc1c(C(C)C)nn(-c2ccccc2)c1N(C)C)C(=O)c1ccccc1F?
% Inhibition: 13%; Z score: -1.6

Which results are given for C[C@@H](CCN)c1cccc(C(F)(F)F)c1?
% Inhibition: -12%; Z score: 1.22

Which “% Inhibition” value does the source give for CCc1nccn1CCc1nc(C2CC2)nn1-c1cccc2cccnc12 here?
Its value is 2%.

What about the Z score of the same molecule?
Its Z score is -0.34.

Cc1ncsc1CCCNCC[C@@H](C)CCCC(C)(C)O was tested. Which “% Inhibition” value did it give?
The value was 0%.

And the Z score?
The Z score was -0.07.

With CC[C@@](C)(C(=O)NC1CCCCC1)N(Cc1cccs1)C(=O)CNC(=O)c1ccccc1 as the molecule, how does the “% Inhibition” value read?
Its value is 13%.

And the Z score?
Its Z score is -2.

For CCCC(O)(CCC)CC(=O)Nc1cn(C)nc1-c1cnn(C)c1, which “% Inhibition” value is on record?
The value was 7%.

What about the Z score of the same molecule?
Its Z score is -0.78.

Which “% Inhibition” value does the source give for CCn1nncc1C(=O)N(CC1CCC1)CC1CC1 here?
The value was 13%.

What about the Z score of the same molecule?
The Z score was -1.51.

Which results are given for O=C(Nc1cc(F)cc(F)c1)N1CCc2ccccc2[C@@H]1c1ccc(F)cc1?
% Inhibition: -6%; Z score: 0.96

Which “% Inhibition” value does the source give for Fc1ccc(-c2cnc3n2C[C@H](CNCc2ccccc2Cl)OC3)cc1 here?
Its value is 1%.

What about the Z score of the same molecule?
Its Z score is -0.13.

With CCn1ccc(CN(C)C(=O)c2ccc(COc3ccc(F)cc3F)o2)n1 as the molecule, how does the “% Inhibition” value read?
Its value is -5%.

What about the Z score of the same molecule?
The Z score was 0.57.

Which “% Inhibition” value does the source give for O=C(c1ccon1)N1CC2CCCCC2C1 (stereo not drawn) here?
Its value is 5%.

What about the Z score of the same molecule?
The Z score was -0.71.

Which results are given for COCCOCC(=O)NCc1cn2c(n1)C(=O)N(Cc1ccccc1)CC2?
% Inhibition: 13%; Z score: -1.73

Which results are given for COc1cc(CNC2CCCCCC2)ccc1OC[C@@H](O)CN1CCCCCC1?
% Inhibition: 1%; Z score: -0.22

How did the “% Inhibition” value turn out when Cc1cc(C)c2c(c1)O[C@H](c1ccc(N(C)C)cc1)CC2=O was run?
Its value is -5%.

And the Z score?
Its Z score is 0.62.

How did the “% Inhibition” value turn out when Cc1cc(CNC(=O)c2cccnc2O)no1 was run?
Its value is 7%.

What about the Z score of the same molecule?
Its Z score is -0.63.

With O=C(Cn1ccc2cc(OCc3ccccc3)ccc21)Nc1ncc[nH]1 as the molecule, how does the “% Inhibition” value read?
Its value is 3%.

And the Z score?
Its Z score is -0.31.

O=C(O)[C@H]1CN(c2cc(C(F)(F)F)ccn2)CC12CCC2 was tested. Which “% Inhibition” value did it give?
The value was -9%.

And the Z score?
The Z score was 1.15.

What does the source list for COc1ccc2cc1Oc1cccc(c1)CO[C@H]1CN(C(=O)CCC3CCN(C)CC3)C[C@@H]1NC(=O)CN(C)C2?
% Inhibition: 0%; Z score: 0.05

Which “% Inhibition” value does the source give for Cc1cc(NC(=O)Nc2cccc3[nH]ccc23)no1 here?
Its value is 5%.

And the Z score?
The Z score was -0.89.

Cc1ccoc1C(=O)N1CCn2c(C(N)=O)cnc2C1 was tested. Which “% Inhibition” value did it give?
The value was -10%.

What about the Z score of the same molecule?
Its Z score is 1.

Cc1cc(N(C)CCc2cn[nH]c2)nc(N(C)C)n1 was tested. Which “% Inhibition” value did it give?
Its value is -3%.

And the Z score?
The Z score was 0.5.

With CN1C[C@@H](CNC(=O)COc2ccccc2)N(Cc2cccnc2)[C@@H](c2ccccc2)C1=O as the molecule, how does the “% Inhibition” value read?
Its value is -7%.

And the Z score?
The Z score was 0.97.

How did the “% Inhibition” value turn out when OC1CCC(NC[C@H](O)COc2ccc(-c3ccccc3)cc2)CC1 (stereo partly drawn) was run?
The value was 0%.

What about the Z score of the same molecule?
The Z score was 0.03.

What does the source list for Cc1nn(C)c(C)c1CN(C)c1nnc2ccccn12?
% Inhibition: -5%; Z score: 0.5

For Cc1cc(Oc2ccccc2)nc(Oc2ccc(OCC(N)=O)nn2)n1, which “% Inhibition” value is on record?
Its value is 8%.

And the Z score?
Its Z score is -0.99.

What does the source list for NC(=O)c1nsc2c(=O)n(CC(=O)Nc3ccccc3Cl)cnc12?
% Inhibition: 5%; Z score: -0.94

How did the “% Inhibition” value turn out when COc1ccc(C(=O)N[C@@H]2C[C@H](COc3cccc(C)n3)[C@@H](O)[C@H]2O)cc1 was run?
Its value is 3%.

And the Z score?
The Z score was -0.4.

For C[C@H]1CN(C(=O)C(=O)Nc2ccc3oc(C4CC4)nc3c2)CC(C)(C)O1, which “% Inhibition” value is on record?
The value was -10%.

What about the Z score of the same molecule?
Its Z score is 1.98.

With CCOCCNC(=O)Nc1ccc2c(c1)COC2=O as the molecule, how does the “% Inhibition” value read?
The value was -2%.

And the Z score?
Its Z score is 0.47.

How did the “% Inhibition” value turn out when COc1cc(C(=O)NCc2nc(-c3cccs3)n[nH]2)on1 was run?
Its value is -23%.

And the Z score?
Its Z score is 2.33.

With N#Cc1ccc(OCCN2CCC[C@H]2c2nc3ccccc3s2)cc1 as the molecule, how does the “% Inhibition” value read?
Its value is -2%.

And the Z score?
Its Z score is 0.34.

Which results are given for O=C1CC[C@H](Cc2ccc(Cl)cc2)C(=O)N1?
% Inhibition: 8%; Z score: -1.24

How did the “% Inhibition” value turn out when CC(C)N1CC[C@H](NC(=O)c2cncc(-c3ccc(Cl)cc3)c2)C1=O was run?
The value was -1%.

And the Z score?
Its Z score is 0.1.

With Cc1ccc(NC(=O)C[C@H]2CCOC2)c(C)n1 as the molecule, how does the “% Inhibition” value read?
The value was -9%.

And the Z score?
The Z score was 1.39.

What does the source list for COc1cc(OC)c(NC(=O)N2CCN(C(=O)c3nonc3N)CC2)cc1Cl?
% Inhibition: 5%; Z score: -0.74

CCc1nnsc1C(=O)NCc1ccc(CN2CC(C)CC(C)C2)cc1 (stereo not drawn) was tested. Which “% Inhibition” value did it give?
The value was -5%.

What about the Z score of the same molecule?
Its Z score is 0.73.

Which “% Inhibition” value does the source give for CC1(C(=O)NCc2ccc3cncn3c2)CCOCC1 here?
The value was 8%.

And the Z score?
Its Z score is -1.23.
